Measured values taken from the supplement of paper PMC4967469.
IC50 is the fitted dose that halves viability relative to control wells, and lower means more sensitive; a limit (>, <) means that the fit lies beyond the doses tested. The AUC spans the tested range (256-fold, ending at the top dose) of the same fit; the more sensitive the line, the further below 1. For part of these data: A top dose marked as inferred comes from the curve model; the source does not state it.

Legend:
Test in all cases: Viability of human cancer cell lines after 72 h of drug (GDSC screen)
[1] = compound: N=C(N)NC(=N)NCCc1ccccc1 [Phenformin]; conditions: top dose 4000 µM; top dose inferred
Description: (§1)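 Human cancer cell lines in 384-well plates, medium with 10% serum, drug for 72 h over a 256-fold dose range (nine 2-fold or five 4-fold steps up to the top dose). Adherent lines were fixed and stained with the nucleic acid dye Syto60, suspension lines read with resazurin; signal relative to control wells, capped at 0 and 100%. One two-parameter sigmoid per drug and line, fitted in a mixed model over all curves with the slope shared within a line.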

[2] = compound: O=c1cc(CN2CCOCC2)occ1OCCCCCSc1ccnc2cc(C(F)(F)F)ccc12 [EHT 1864]; conditions: top dose 10 µM; top dose inferred
Description: as §1

[3] = compound: CNCc1ccc(-c2[nH]c3cc(F)cc4c3c2CCNC4=O)cc1 [AG-014699]; conditions: top dose 5 µM; top dose inferred
Description: as §1

[4] = compound: C=CC(=O)Nc1cc(NC(=O)c2ccc(C)c(NC(=O)c3ccno3)c2)cc(C(F)(F)F)c1 [QL-XI-92]; conditions: top dose 10.24 µM; top dose inferred
Description: as §1

[5] = compound: COc1cc2ncnc(Nc3ccc(F)c(Cl)c3)c2cc1OCCCN1CCOCC1 [Gefitinib]; conditions: top dose 0.5 µM
Description: as §1

[6] = compound: CCC1=C[C@@H]2CN(C1)Cc1c([nH]c3ccccc13)[C@@](C(=O)OC)(c1cc3c(cc1OC)N(C)[C@H]1[C@@](O)(C(=O)OC)[C@H](OC(C)=O)[C@]4(CC)C=CCN5CC[C@]31[C@@H]54)C2 [Vinorelbine]; conditions: top dose 0.064 µM; top dose inferred
Description: as §1

[7] = compound: COc1cc2nccc(Oc3ccc(NC(=O)C4(C(=O)Nc5ccc(F)cc5)CC4)cc3)c2cc1OC [XL-184]; conditions: top dose 5.12 µM; top dose inferred
Description: as §1

[8] = compound: O=c1cc(N2CCOCC2)oc2c(-c3cccc4c3sc3ccccc34)cccc12 [NU-7441]; conditions: top dose 2 µM; top dose inferred
Description: as §1

[9] = compound: COc1cc2ncnc(Nc3cc(Br)c(O)c(Br)c3)c2cc1OC [WHI-P97]; conditions: top dose 10.24 µM; top dose inferred
Description: as §1

| Cell Line | AUC [1] | IC50 [1] [µM] | AUC [2] | IC50 [2] [µM] | AUC [3] | IC50 [3] [µM] | AUC [4] | IC50 [4] [µM] | AUC [5] | IC50 [5] [µM] | AUC [6] | IC50 [6] [µM] | AUC [7] | IC50 [7] [µM] | AUC [8] | IC50 [8] [µM] | AUC [9] | IC50 [9] [µM] |
| --- | --- | --- | --- | --- | --- | --- | --- | --- | --- | --- | --- | --- | --- | --- | --- | --- | --- | --- |
| HCC1954 (breast, adherent) | 0.66 | 751 | 0.939 | > 10 | 0.972 | > 5 | 0.951 | > 10.2 | 0.963 | > 0.5 | 0.616 | 0.00879 | 0.983 | > 5.12 | 0.979 | > 2 | 0.976 | > 10.2 |
| HCC-15 (lung squamous cell carcinoma, adherent) | 0.783 | 2200 | 0.924 | > 10 | 0.963 | > 5 | 0.937 | > 10.2 | 0.953 | > 0.5 | 0.499 | 0.00396 | 0.967 | > 5.12 | 0.945 | > 2 | 0.977 | > 10.2 |
| HCC-44 (lung adenocarcinoma, adherent) | 0.611 | 500 | 0.982 | > 10 | 0.973 | > 5 | 0.923 | > 10.2 | 0.953 | > 0.5 | 0.408 | 0.00226 | 0.868 | 4.5 | 0.874 | 1.88 | 0.966 | > 10.2 |
| HCC-56 (large intestine, adherent) | 0.68 | 808 | 0.975 | > 10 | 0.964 | > 5 | 0.966 | > 10.2 | 0.959 | > 0.5 | 0.705 | 0.0154 | 0.948 | > 5.12 | 0.987 | > 2 | 0.987 | > 10.2 |
| HCT-15 (large intestine, adherent) | 0.725 | 1140 | 0.888 | > 10 | 0.985 | > 5 | 0.966 | > 10.2 | 0.983 | > 0.5 | 0.959 | > 0.064 | 0.938 | > 5.12 | 0.974 | > 2 | 0.977 | > 10.2 |
| HEC-1 (endometrium, adherent) | 0.893 | > 4000 | 0.946 | > 10 | 0.922 | > 5 | 0.987 | > 10.2 | 0.975 | > 0.5 | 0.743 | 0.0193 | 0.989 | > 5.12 | 0.952 | > 2 | 0.971 | > 10.2 |
| HGC-27 (stomach, adherent) | 0.453 | 190 | 0.913 | > 10 | 0.81 | 2.15 | 0.932 | > 10.2 | 0.976 | > 0.5 | 0.354 | 0.00169 | 0.911 | > 5.12 | 0.986 | > 2 | 0.942 | > 10.2 |
| HN (head and neck, adherent) | 0.027 | < 15.6 | 0.97 | > 10 | 0.973 | > 5 | 0.986 | > 10.2 | 0.882 | 0.473 | 0.97 | > 0.064 | 0.988 | > 5.12 | 0.976 | > 2 | 0.984 | > 10.2 |
| HO-1-u-1 (head and neck, adherent) | 0.838 | 2550 | 0.935 | > 10 | 0.961 | > 5 | 0.976 | > 10.2 | 0.843 | 0.334 | 0.901 | > 0.064 | 0.932 | > 5.12 | 0.969 | > 2 | 0.987 | > 10.2 |
| HOP-62 (lung adenocarcinoma, adherent) | 0.706 | 952 | 0.971 | > 10 | 0.987 | > 5 | 0.983 | > 10.2 | 0.987 | > 0.5 | 0.416 | 0.00236 | 0.93 | > 5.12 | 0.945 | > 2 | 0.968 | > 10.2 |
| HOS (osteosarcoma, adherent) | 0.987 | > 4000 | 0.982 | > 10 | 0.95 | > 5 | 0.991 | > 10.2 | 0.981 | > 0.5 | 0.525 | 0.00463 | 0.985 | > 5.12 | 0.952 | > 2 | 0.989 | > 10.2 |
| HT55 (large intestine, adherent) | 0.448 | 180 | 0.99 | > 10 | 0.99 | > 5 | 0.99 | > 10.2 | 0.979 | > 0.5 | 0.979 | > 0.064 | 0.988 | > 5.12 | 0.99 | > 2 | 0.99 | > 10.2 |
| HT-3 (cervix, adherent) | 0.364 | 105 | 0.975 | > 10 | 0.987 | > 5 | 0.967 | > 10.2 | 0.914 | > 0.5 | 0.82 | 0.0374 | 0.966 | > 5.12 | 0.97 | > 2 | 0.971 | > 10.2 |
| HT-115 (large intestine, adherent) | 0.59 | 431 | 0.931 | > 10 | 0.991 | > 5 | 0.99 | > 10.2 | 0.963 | > 0.5 | 0.958 | > 0.064 | 0.981 | > 5.12 | 0.989 | > 2 | 0.991 | > 10.2 |
| HT-1197 (bladder, adherent) | 0.976 | > 4000 | 0.942 | > 10 | 0.919 | > 5 | 0.984 | > 10.2 | 0.972 | > 0.5 | 0.846 | 0.0602 | 0.967 | > 5.12 | 0.983 | > 2 | 0.96 | > 10.2 |
